Results as given in PubChem BioAssay AID686978 (National Center for Advancing Translational Sciences (NCATS), 2013).
Out of some 420,000 compounds screened, about 64,000 (15%) were called active. The shares of active, inactive and inconclusive entries below differ from those in the screen. Calls come from the whole dose curve; as a rule, active = well fitted inhibition curve with a large enough effect; inconclusive = small, poorly fitted or top-dose-only effect; inactive = flat fitted curve, though single readings scatter. No potency is given beside an inconclusive call; the fits are too rough.

Assay: qHTS for Inhibitors of human tyrosyl-DNA phosphodiesterase 1 (TDP1): qHTS in cells in absence of CPT; note: nearly all actives have a fitted effect of over 55% in size
Conditions: DT40 Tdp1-/- hTDP1 cells, no CPT, ATP luminescence, 48 h; series mostly up to 46.2 µM
In short: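 Chicken DT40 Tdp1-/- cells stably complemented with human TDP1 were seeded at 400 cells/well with DMSO in place of 20 nM camptothecin. After compound pinning, cells grew at least 48 hr at 37 °C; viability read by CellTiter-Glo luminescence.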
Potency is the fitted concentration of half-maximal effect; tags give direction and shape of the fitted curve.

Compound | Potency
Nc1ccn([C@@H]2O[C@H](C(=O)Nc3ccc(C(=O)N4CCCCC4)cc3)[C@@H](O)[C@H]2O)c(=O)n1 | inactive
Cc1cc(OC(C)C(=O)NCCCN2CCOCC2)c2c(C)c(C)c(=O)oc2c1 (stereo unspecified) | inactive
Cc1cc2c(=O)oc(-c3ccc(F)cc3)nc2s1 | inactive
CC(C)COc1ccc(C(=O)N2CCN(CCc3ccccn3)CC2)cc1 | inactive
CCN(CC)CCOC(=O)c1ccc(N/C=C(/C#N)c2nc(-c3ccc4c(c3)OCO4)cs2)cc1 | active: 5.17 µM
CCOC(=O)c1c(NC(=O)COc2cccc(C(F)(F)F)c2)sc2c1CCCCC2 | inactive
COc1cc(/C=N/n2cnnc2)ccc1OCCSc1ccc(C)cc1 | inconclusive [inhibitor, partial curve]
O=C(Cc1c(Cl)cccc1Cl)Nc1cccc(S(=O)(=O)N2CCOCC2)c1 | inactive
O=C(CCNc1ccc(Cc2ccncc2)cc1)c1cccc([N+](=O)[O-])c1 | active: 16.4 µM
COc1ccc(C(CCN2CCCCC2)c2c(O)cc(OC)cc2OC)cc1 (stereo unspecified) | active: 18.4 µM
CC1CCCCN1S(=O)(=O)c1ccc(S(=O)(=O)N(CC(=O)Nc2ccccc2)Cc2cccs2)cc1 (stereo unspecified) | active: 25.9 µM
O=C(Nc1nnc(S(=O)(=O)N2CCc3ccccc32)s1)c1ccccc1 | inconclusive [inhibitor, partial curve, poor fit]
COc1ccccc1NS(=O)(=O)c1cccc(C(=O)N2CCCC2)c1 | inactive
CCOC(=O)Nc1c(O)ccc2oc(C)c(-c3ccccc3)c12 | inconclusive [inhibitor, single point]
COC(=O)c1ccccc1Oc1ccc(NC(=O)CCCl)cc1 | inconclusive [inhibitor, single point]
COc1ccccc1CNc1nc(Oc2cccc(F)c2)c2sccc2n1 | inconclusive [inhibitor, single point]
CCNc1nc(NCC)nc(N/N=C/c2ccc(Br)cc2)n1 | inconclusive [inhibitor, single point]
Cc1ccc2nc(-c3ccco3)c(Cc3ccccc3)n2c1 | inconclusive [inhibitor, single point]
CC(C)Cn1c(N)c(C(=O)COC(=O)c2c(O)c(Cl)cc(Cl)c2Cl)c(=O)n(C)c1=O | inactive
CN(c1ccccc1)S(=O)(=O)c1cccc(C(=O)NCCc2c[nH]c3ccccc23)c1 | inconclusive [inhibitor, single point]
O=C(NCc1cccnc1)C(=O)N/N=C/c1ccccc1[N+](=O)[O-] | inactive
OC(c1cccc(Cl)c1)c1nc(-c2cc3ccccc3o2)cs1 (stereo unspecified) | inconclusive [inhibitor, single point]
Cc1cc(=O)[nH]c(N/N=C/c2ccccc2C(F)(F)F)n1 | inconclusive [inhibitor, single point]
COc1ccc(CCNC(=O)CSc2nc3[nH]ncc3c(=O)n2-c2ccc(Cl)cc2Cl)cc1OC | inconclusive [inhibitor, single point]

Compound | Potency
O=C(NC1CCCCC1)C(c1ccc(O)cc1)N(CC1CCCO1)C(=O)C1COc2ccccc2O1 (stereo unspecified) | inconclusive [inhibitor, single point]
CCN(CC)S(=O)(=O)c1ccc2oc(C(=O)Nc3ccc(Br)cc3F)c(C)c2c1 | inconclusive [inhibitor, partial curve, poor fit]
O=C(C1CCC(=O)N(C2CCCC2)C1)N1CCN(c2ccccc2Cl)CC1 (stereo unspecified) | inactive
O=C(CC(=O)N1CCOCC1)N1CCOCC1 | inactive
Cc1ccc(-c2nc3ccc(Cl)cn3c2Nc2ccc3c(c2)OCCO3)s1 | inconclusive [inhibitor, single point]
O=C(Cn1c(NCCO)nc2ccccc21)N1CCN(Cc2ccccc2)CC1 | inactive
N/C(=N\OC(=O)CCC1CCCC1)c1cccnc1 | inactive
CN(C)c1ccc(C2Nc3ccccc3C(=O)N2NS(C)(=O)=O)cc1 (stereo unspecified) | inactive
CCN(c1cccc2ccccc12)S(=O)(=O)c1ccc(Cl)nc1 | inconclusive [inhibitor, partial curve]
CCCc1nn(C)c2c(=O)[nH]c(-c3cc(S(=O)(=O)N(CCO)CCO)ccc3OCC)nc12 | inactive
Cc1cc(CNC(=O)COc2ccc(F)cc2F)c2ccccc2n1 | inconclusive [inhibitor, single point]
CCOc1ccccc1N(C)C(=O)c1ccc2c(=O)n3c(nc2c1)CCCCC3 | inactive
Cc1cc(/C=C(\C#N)C(=O)NCc2ccco2)c(C)n1C1CCCC1 | inconclusive [inhibitor, single point]
Clc1cccc(-c2nc(NCc3cccnc3)c3ccccc3n2)c1 | inactive
CCC(C)(C)NC(=O)C(c1cccc(OC)c1OC)N(Cc1ccccc1)C(=O)CCC(=O)Nc1cc(C)on1 (stereo unspecified) | inconclusive [inhibitor, single point]
CCOC(=O)C(C)On1c(-n2nc(C)cc2C)nc2ccccc2c1=O (stereo unspecified) | inconclusive [inhibitor, single point]
COC(=O)[C@]1(Cc2ccccc2)N[C@H](CN(C)S(=O)(=O)c2ccc(C(C)(C)C)cc2)[C@@H]2C(=O)N(C)C(=O)[C@@H]21 | inconclusive [inhibitor, single point]
CCOc1ccc(CCNC(=O)Cn2ncn3c(cc4ccccc43)c2=O)cc1OCC | inactive
CN1Cc2cc(C(=O)c3ccccc3O)cnc2NC1=O | inconclusive [inhibitor, partial curve]
CCOC(=O)c1c(NC(=O)/C=C/C(=O)O)sc(C)c1-c1ccc(C)c(C)c1 | inconclusive [inhibitor, single point]
CCC(c1nnnn1-c1ccc2c(c1)OCCO2)N1CCN(c2ccc(C(F)(F)F)cn2)CC1 (stereo unspecified) | inconclusive [inhibitor, single point]
CCOC(=O)COc1c(/C=N\O)cc(Cl)cc1OC | inactive
N#CC1(NC(=O)CSc2n[nH]c(-c3ccccc3)n2)CCCCC1 | inactive
CCOc1cc(CN2CCN(c3ccc(C(C)=O)cc3)CC2)ccc1OC | inconclusive [inhibitor, partial curve]

Compound | Potency
CCn1c(C(=O)Nc2cc(Cl)ccc2C)cc2sc(Cl)cc21 | inconclusive [inhibitor, partial curve]
COCCN1CC(=O)N2C(c3cccc(C)c3)c3[nH]c4ccccc4c3C[C@H]2C1=O (stereo partly specified) | inconclusive [inhibitor, single point]
COc1ccc(CCNC(=O)CCc2c(C)c3cc4c(C)c(C)oc4cc3oc2=O)cc1 | active: 20.6 µM
COc1ccc(NC(=O)CC(C)n2nc(C)cc2C)cc1Cl (stereo unspecified) | inconclusive [inhibitor, single point]
CCOC(=O)N1CCN(C(=O)C2CCN(S(C)(=O)=O)CC2)CC1 | inactive
CC1CC(C)CN(C(=O)C(Cc2ccccc2)n2cccc2)C1 (stereo unspecified) | inconclusive [inhibitor, single point]
COc1ccc(CNC(=O)C2(CC3CC(c4ccccc4)=NO3)CCN(C(=O)C3(C)CC3)CC2)cc1 (stereo unspecified) | inactive
COc1ccccc1CCC(=O)OCC(=O)Nc1c(C)nn(-c2ccccc2)c1C | inactive
O=C(CSc1nc2ccccc2c(=O)n1-c1ccccc1)N1CCc2ccccc21 | inconclusive [inhibitor, full curve]
COC(=O)c1ccccc1NC(=O)Cn1c(=O)n(-c2ccc(C)cc2)c(=O)c2ccccc21 | active: 0.92 µM
CCCCN(C(=O)c1ccc([N+](=O)[O-])s1)c1c(N)n(CC(C)C)c(=O)[nH]c1=O | inactive
O=C(NC1CCCC1)C(c1ccncc1)N(C(=O)Cn1nnc(-c2ccccc2F)n1)c1cccc(F)c1 (stereo unspecified) | inactive
CCOc1ccc2oc(-c3ccccc3)c(C(=O)N3CCN(C)CC3)c2c1 | inconclusive [inhibitor, single point]
Cc1ccc(S(=O)(=O)N(C)c2nc3ccccc3[nH]c2=S)cc1 | inconclusive [inhibitor, single point]
Cc1cccc(OC(C)C(=O)N2CCN(Cc3ccc4c(c3)OCO4)CC2)c1 (stereo unspecified) | inconclusive [inhibitor, single point]
COC(=O)c1ccc(COC(=O)c2ccc(C)c(S(=O)(=O)N3CCCCC3)c2)cc1 | inconclusive [inhibitor, partial curve]
Cc1ccc2oc3nc(C)c(C(=O)Nc4cccc(C(F)(F)F)c4)cc3c(=O)c2c1 | inconclusive [inhibitor, single point]
CC1(C)CC(CC(=O)Nc2nccs2)(c2ccccc2)CCO1 (stereo unspecified) | inconclusive [inhibitor, single point]
CCC(C(=O)Nc1nccs1)(C(F)(F)F)C(F)(F)F | inconclusive [inhibitor, single point]
Cc1cc2nc(-c3cccc(Cl)c3)c(Cc3ccsc3)n2c(C)c1Br | inconclusive [inhibitor, partial curve]
C[C@H](NC(=O)c1ccco1)C(=O)N1CCN(c2ccc(C(F)(F)F)cn2)CC1 | inconclusive [inhibitor, partial curve]
C=CCSc1nnc(-c2cc3c(-c4ccccc4)nn(C)c3s2)n1C | inconclusive [inhibitor, single point]
C=CCn1c(SCc2cc(=O)n3ccsc3n2)nc2cc(Cl)ccc2c1=O | inconclusive [inhibitor, partial curve]
